The series can be described thus: Solid form stability of CHP forms by XRPD (storage, drying, DVS). The method, then:
XRPD analysis was carried out on a PANalytical X'pert pro, scanning the samples between 3 and 35° 2θ. The material was gently ground to release any agglomerates and loaded onto a multi-well plate with Kapton or Mylar polymer film to support the sample. The multi-well plate was then placed into the diffractometer and analysed using Cu K radiation (α1λ=1.54060 Å; α2=1.54443 Å; β=1.39225 Å; α1:α2 ratio=0.5) running in transmission mode (step size 0.0130° 2θ) using 40 kV/40 mA generator settings.
XRPD analysis was carried out on a sample of 5 g of CHP Hydrate. The sample was weighed in a glass vial, and 6 mL of a 90:10 ethanol/water mixture was added to make a slurry. The mixture was then agitated for approximately 24 hours at ambient temperature and then analyzed by XRPD. […] XPRD analysis was carried out to assess any change in the form of the material.
The vial was placed inside the oven for an additional 18 hours. […] There was an extra peak at 8° 2θ that had not been previously seen in any pattern.

As to `O=C1N[C@@H](Cc2cnc[nH]2)C(=O)N2CCC[C@@H]12` [CHP hydrate, cyclo(-His-Pro) hydrate], the “form by XRPD” value by setting is: (dried at 50° C. for 90 minutes) “still predominantly Pattern 2 with some Pattern 1 peaks”; (dried at 80° C. for 18 hours) “a mixture of Pattern 1 and Pattern 2”; (vacuum oven 50° C. for 1 hour) “still predominately Pattern 2 with some Pattern 1 peaks”.
